Source: the supplement of paper PMC11417369
This is one part of the list.

Test system: PF3D7_0420300 AP2 domain 1 (GST-tagged)
Assay: gcPBM binding intensity (ln(normalized median fluorescence intensity)); higher = stronger DNA binding
Summary of the method: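 An Agilent 4 × 180k array carrying primer-extended double-stranded 36-bp intergenic genomic probes and negative controls received GST-tagged P. falciparum DNA-binding domains expressed in E. coli, about 25 μg on average, for 1 h. The binding buffer contained 1× PBS, 1% milk, 0.2 mg/ml BSA, 0.5% salmon testes DNA and 0.03% Triton X-100. Binding intensity is the top Masliner-normalised natural-log median intensity across replicate spots of either probe orientation, read after Alexa488 anti-GST antibody staining and a 488 nm scan.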

First: TACAACCTTATAATTAGTACTTAGTTATGCTGTAAA [XGTACX_site6052]
Second: TTTAATTTTTTTTATAGTACATAAAAAATAAAAAAA [XGTACX_site5631]
The “gcPBM binding intensity (ln)” value of the first is higher: 9.08 for the first, 8.75 for the second.

Going from “TTTATTTGTGCATATACACACTTAAATATGTTTATT [CACACA_site7772]” to ATTATAATACTTTGTATGCACTAATCAATTATTAAA, the “gcPBM binding intensity (ln)” value falls from 9.52 to 9.01.

Going from “CCGATATAATGGAAAACACACAAAAGATATTTATAT [CACACA_site7293]” to “ACATAAAATTGGAGCAAACACACAAGGTTGAAATTA [CACACA_site505]”, the “gcPBM binding intensity (ln)” value rises from 9.54 to 9.65.

Compared with “TTTGTTATGGTTTTCTCACACATATATATATATATA [CACACA_site4617]”, “CCTCATAAGTTCTTATGTACGTATTGTTCACCTTTA [XGTACX_site6640]” is lower in “gcPBM binding intensity (ln)” value: 9.5 for the first, 9.37 for the second.

Compared with “CTGTAAAAAATATAAACACACATAGAAATATATAAA [CACACA_site340]”, “TTAATAATAAAAAGGAGTACACTAATATACTATAAA [XGTACX_site2346]” is lower in “gcPBM binding intensity (ln)” value: 9.59 for the first, 9.32 for the second.

Going from “TTAAGAAACAAAGAAAGTACACAACATAATATAGAA [XGTACX_site477]” to “ATATAATATATATATAAACACACAAAAAAAATTATA [CACACA_site8434]”, the “gcPBM binding intensity (ln)” value falls from 9.75 to 9.63.

First: AATAAAATCATCTATACACACAAAAAAAATAAGAAA [CACACA_site2101]
Second: AATAACCACGGACACACACACATATATATATATATA [CACACA_site5873]
The “gcPBM binding intensity (ln)” value of the first is lower: 9.86 for the first, 9.92 for the second.

First: TATTTAAATTTGTATAATGGACGAATTATATAGAAA [GTGCAC_negctrl_site650]
Second: CCCACAGACGGACACACACACATATATATATATATA [CACACA_site4351]
The “gcPBM binding intensity (ln)” value of the first is lower: 9.07 for the first, 9.81 for the second.

First: GAATTATAAATTATAGTGCATAAAATTATGGCATAA [GTGCAC_site9938]
Second: TCAAAACATTATTCCATACACACCATACTTTTTAAT [CACACA_site2770]
The “gcPBM binding intensity (ln)” value of the first is lower: 9.03 for the first, 9.51 for the second.

Compared with “TTGAATTATAAGAATAAACACACAAGCTTAAAAAAA [CACACA_site8318]”, “TATATATTATATATATGTACTTATTCATATATATAA [XGTACX_site3860]” is lower in “gcPBM binding intensity (ln)” value: 9.29 for the first, 9.06 for the second.

Going from CTTTAATATATTTAAGTGCAAAACTAATATGTAAAG to “AAAGAAAAAGAAAAAGAAAAAATAAAATAAAATAAA [CACACA_negctrl_site872]”, the “gcPBM binding intensity (ln)” value falls from 9.19 to 9.14.

First: TATTTAAAAACAAAAAGTACTAATATATATTTATAC [XGTACX_site1422]
Second: AGTAGTATGGAGAAAAGTACATAGTATCTGATAACC [XGTACX_site2040]
The “gcPBM binding intensity (ln)” value of the first is lower: 9.14 for the first, 9.39 for the second.

Going from “GACTGAACAACATAATGTACATTTATAAGTATATAT [XGTACX_site3813]” to “TAAAAAATAAAATACACACACATATATATATATATA [CACACA_site1323]”, the “gcPBM binding intensity (ln)” value rises from 9.33 to 9.51.

Compared with “TATATTCTTTTTTTAACACACAAAAAAAATAAAATA [CACACA_site1898]”, “GAGGGAAAAAATAATCGTACAAAGAAAAAAAAAAAT [XGTACX_site7361]” is higher in “gcPBM binding intensity (ln)” value: 9.19 for the first, 9.42 for the second.

First: AAAAAAATTAAAGATTGTACTTGATTTTTCATTTTA [XGTACX_site6685]
Second: TTTTTTTCATAAATTAGGTAATGTCGCAGGGGGACA [TGCATGCA_negctrl_site556]
The “gcPBM binding intensity (ln)” value of the first is lower: 8.97 for the first, 9.29 for the second.

Compared with “AAAGAATTGTATAAAAGTACATATTTGTTTGTTTTA [XGTACX_site7380]”, “ATTTATTAAAAGAAATGTACAGAAAATGTTTGGAAT [XGTACX_site7187]” is higher in “gcPBM binding intensity (ln)” value: 9.13 for the first, 9.26 for the second.

Compared with “AAGAAAAAAAAGATAATAATAATAATAATAAAATGA [TGCATGCA_negctrl_site398]”, “TATATGGTATGTATTACACACATATCACATATATAT [CACACA_site3045]” is higher in “gcPBM binding intensity (ln)” value: 9.41 for the first, 9.57 for the second.

Going from “TGGTAAATTGAGAATCGTACATTAAAAAACATAAAA [XGTACX_site3253]” to “GGAATGGTACATGATACACACACGCACATATAAATA [CACACA_site7581]”, the “gcPBM binding intensity (ln)” value rises from 9.25 to 9.74.

First: TTTTCTATATAGTGTTGTACATTATTGTGTAAAAAT [XGTACX_site3223]
Second: ATATTTTATACTTGCACACAAAATATATTAAAATGG [CACACA_site5139]
The “gcPBM binding intensity (ln)” value of the first is lower: 9.21 for the first, 9.34 for the second.

Going from “ATAAAATTGGAGCAAACACACAAGGTTGAAATTAAC [CACACA_site506]” to “TTATGTTGTAAATGCACACATACAAATACATATACA [CACACA_site1368]”, the “gcPBM binding intensity (ln)” value falls from 9.72 to 9.33.

First: TACAATATAAAATACACACGCACACCGAAAAAAAAA [CACACA_site5865]
Second: GATAAAATGAGACCAGTGCATTATTAGTTGTACACC
The “gcPBM binding intensity (ln)” value of the first is higher: 9.92 for the first, 9.44 for the second.

First: TTTTTTGCTAAGTGTACACAAATGTTTATTAATTTA [CACACA_site5859]
Second: TATACATATTTATACACACACACATATATTTATATA [CACACA_site6727]
The “gcPBM binding intensity (ln)” value of the first is lower: 9.29 for the first, 10 for the second.

Compared with “TGTGCTTATCCTAACACACACAACATATAAGAAAAA [CACACA_site3319]”, “AAAAAATAAAAAATATGTACACATTCAAAATTTTAC [XGTACX_site8479]” is lower in “gcPBM binding intensity (ln)” value: 9.58 for the first, 9.21 for the second.

Compared with “AAAAAGAAAAAAAACACACACAAATATAAATAAATA [CACACA_site1183]”, “ATATATATATATATATGTACATATTACATTACTTAT [XGTACX_site749]” is lower in “gcPBM binding intensity (ln)” value: 9.98 for the first, 9.35 for the second.

Going from “ATAAAACAAGCAAATCGTACAAAAGGATAATATATA [XGTACX_site5592]” to “AAAAAAAAAAAAAACACACACACACCCATACCCATA [CACACA_site5577]”, the “gcPBM binding intensity (ln)” value rises from 9.77 to 10.1.

Compared with “ATGTATGGTTTATATGTTCATTTGTTCACCTATTTA [CACACA_negctrl_site1533]”, “ATATATATTTAAGAGGGTACAAAAATTTATGAGCAT [XGTACX_site6156]” is lower in “gcPBM binding intensity (ln)” value: 9.93 for the first, 9.34 for the second.

First: TCTTTGGTAATATATATGTATAAATATAAATATATA [CACACA_negctrl_site1566]
Second: ATATATATATATGTTAGTACATAACAAGTGTGCATA [XGTACX_site1527]
The “gcPBM binding intensity (ln)” value of the first is lower: 9.01 for the first, 9.44 for the second.

First: ATATACAAAGAAGCAGTGCATATTTTCTTATTTATG [GTGCAC_site9567]
Second: TGAAAGAATAGAATGAGTACTAATTTAAATTACACT [XGTACX_site1120]
The “gcPBM binding intensity (ln)” value of the first is lower: 9.18 for the first, 9.29 for the second.

Going from “TTCTTTATATATTTTTGTACATATTTATTTTTAGAG [XGTACX_site6757]” to “TTGATTTCATTTTAAGTGCATAACTAATATTATATA [GTGCAC_site9713]”, the “gcPBM binding intensity (ln)” value falls from 9.45 to 9.14.

First: TAAGTACGACTTGACACACATACACATATATATATA [CACACA_site1286]
Second: CAAATACACCAACACACACACACAAAAAAAAAAAAA [CACACA_site514]
The “gcPBM binding intensity (ln)” value of the first is lower: 9.5 for the first, 9.98 for the second.

First: ATTACCAACAGATCTTGTACATATTAAAGCATCTTA [XGTACX_site2361]
Second: CTATTCTATTTTTATTGTACATATATATAATTTGAA [XGTACX_site389]
The “gcPBM binding intensity (ln)” value of the first is lower: 9.12 for the first, 9.31 for the second.

Going from “AAAAAAATATAAATACGTACATATATATATATATAT [XGTACX_site432]” to “TGGAATAATACGCGTACACACATATAAATATTAATA [CACACA_site6211]”, the “gcPBM binding intensity (ln)” value rises from 9.21 to 9.58.

Compared with “ATATAATGGCTAAATAGTACAATATAATATTTTTTA [XGTACX_site8922]”, “ACACATGAATATTGTAGTACGGCAATTAATATAATA [XGTACX_site4589]” is higher in “gcPBM binding intensity (ln)” value: 9.17 for the first, 9.39 for the second.

Compared with “AGAAAGGAAAAAACCTCACACATGCTTTTAATAGTA [CACACA_site4602]”, “ACTATATATATAAGTGCATGTTCATTATACCTAAAG [TGCATGCA_site696]” is lower in “gcPBM binding intensity (ln)” value: 9.27 for the first, 9.22 for the second.

Compared with “AGTAAATTATATATCTGTACATATATATATGTGTAT [XGTACX_site5519]”, “TTTTAAAAAAATATAATACACACCAAAAATATGCAC [CACACA_site2131]” is higher in “gcPBM binding intensity (ln)” value: 9.48 for the first, 9.55 for the second.

First: AAAAATTCATTTTTATGTACGTACAAATTCTTCGTT [XGTACX_site2471]
Second: CTCACAAATGAATACACACAAACATATATATTTATA [CACACA_site1620]
The “gcPBM binding intensity (ln)” value of the first is lower: 9 for the first, 9.64 for the second.

Going from “AATCTATATTAATACACACACACATATATTTATATA [CACACA_site7732]” to “TTTATTTTGACAGATTGTACACTTTATACATGTTTT [XGTACX_site2356]”, the “gcPBM binding intensity (ln)” value falls from 10.1 to 9.59.

Going from “TGAAAAAAGAAAAATACACACATATAACATAATATA [CACACA_site7126]” to “GTATATATTTCCAGAAGTACTTATTTTTATGTATGT [XGTACX_site4079]”, the “gcPBM binding intensity (ln)” value falls from 9.83 to 9.36.

Compared with “TTATATTTATTGATATGTACATATTATAATTAATTA [XGTACX_site586]”, “TTTTAATATTTTGCCTGTACATAAAAGTGAGAAGAT [XGTACX_site2503]” is higher in “gcPBM binding intensity (ln)” value: 9.08 for the first, 9.33 for the second.

Going from “AAAAATGCCAGAAAACGTACTCGGATTTTCTAATAT [XGTACX_site6552]” to “TGATTACATATGATGTGTACCTAATTTTGTTTACAC [XGTACX_site7032]”, the “gcPBM binding intensity (ln)” value rises from 9.17 to 9.34.

Compared with “TATAAAGGTTGGTACTGTACAATATAAGAAAAAAAA [XGTACX_site435]”, “AAATAGTTCATAAAAAGTACAAAATTTTTATCCGTA [XGTACX_site2796]” is higher in “gcPBM binding intensity (ln)” value: 9.23 for the first, 9.26 for the second.

Going from “ATCATTCATTTAACAACACACAACATATTTATCATA [CACACA_site1041]” to “TATATATTATATAAGAGTACATATAATTATAGTTTT [XGTACX_site5039]”, the “gcPBM binding intensity (ln)” value falls from 9.64 to 9.11.

First: TTTTTTATATTGTGATGTACAAATTTTAAAATGTAG [XGTACX_site1875]
Second: GTGTGGAGTTACAAAGAGGAGAACCTCACAGTAATC [CACACA_negctrl_site527]
The “gcPBM binding intensity (ln)” value of the first is lower: 8.94 for the first, 9.18 for the second.

Compared with “AAATTCGTTATAAAAACATGCAACGATCAACATTGT [TGCATGCA_site844]”, “TTACTCTTTATATAATGTACATATATATATATATTA [XGTACX_site2624]” is higher in “gcPBM binding intensity (ln)” value: 9.3 for the first, 9.31 for the second.

“TTATGTGATAAAAAAAAAATACAACAAAGTTAAATA [GTGCAC_negctrl_site36]” was tested, and the “gcPBM binding intensity (ln)” value was 9.23.
